According to article PMC4752240:
No constants are given. Whether binding was seen depends on the method and setting. Some entries that bind do so weakly or less than the wild type. Where a sequence is shown, tags or fusion partners need not be part of it.

Key:
Assay in all cases: two-hybrid; bait fused with the GAL4 DNA binding domain (pDEST32), prey fused with the GAL4 activation domain (pDEST22); mating of yeast strains AH109 and Y187; growth on -His (weak interaction) or -His -Ade (strong interaction); three replicates
[1] = target: T1, TDM1 (THREE DIVISION MUTANT1), yeast two-hybrid fusion (Arabidopsis thaliana) (UniProt Q9SUC3)
T1 sequence: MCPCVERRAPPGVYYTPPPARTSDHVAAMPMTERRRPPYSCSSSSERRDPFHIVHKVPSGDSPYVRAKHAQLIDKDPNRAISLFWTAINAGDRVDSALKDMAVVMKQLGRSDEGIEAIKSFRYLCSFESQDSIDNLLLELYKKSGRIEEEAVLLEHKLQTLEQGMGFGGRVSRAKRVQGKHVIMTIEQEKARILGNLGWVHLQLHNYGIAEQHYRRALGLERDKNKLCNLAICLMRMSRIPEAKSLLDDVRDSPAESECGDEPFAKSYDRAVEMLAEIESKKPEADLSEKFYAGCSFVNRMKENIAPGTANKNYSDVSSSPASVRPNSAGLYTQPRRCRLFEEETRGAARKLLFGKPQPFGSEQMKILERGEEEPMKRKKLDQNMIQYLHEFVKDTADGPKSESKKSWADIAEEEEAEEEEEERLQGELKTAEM

[2] = target: T2, APC8, yeast two-hybrid fusion (UniProt Q9STS3)
T2 sequence: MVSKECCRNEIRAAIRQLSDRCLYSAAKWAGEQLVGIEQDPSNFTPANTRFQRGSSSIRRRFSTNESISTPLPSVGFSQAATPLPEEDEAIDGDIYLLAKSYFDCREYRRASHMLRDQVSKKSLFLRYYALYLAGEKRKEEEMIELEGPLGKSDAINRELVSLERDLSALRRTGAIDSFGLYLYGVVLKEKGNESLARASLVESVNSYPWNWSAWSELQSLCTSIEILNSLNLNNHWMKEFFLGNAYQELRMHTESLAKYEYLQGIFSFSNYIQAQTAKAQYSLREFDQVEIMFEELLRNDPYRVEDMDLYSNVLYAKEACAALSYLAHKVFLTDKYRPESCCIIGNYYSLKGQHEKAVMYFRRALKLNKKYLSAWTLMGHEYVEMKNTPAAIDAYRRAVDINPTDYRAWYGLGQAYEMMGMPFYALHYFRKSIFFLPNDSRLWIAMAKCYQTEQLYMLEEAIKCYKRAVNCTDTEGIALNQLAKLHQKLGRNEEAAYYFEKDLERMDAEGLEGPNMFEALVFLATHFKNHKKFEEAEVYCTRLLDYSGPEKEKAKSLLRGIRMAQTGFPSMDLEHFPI

[3] = target: T3, CDC20.1, yeast two-hybrid fusion (UniProt Q9SZA4)
T3 sequence: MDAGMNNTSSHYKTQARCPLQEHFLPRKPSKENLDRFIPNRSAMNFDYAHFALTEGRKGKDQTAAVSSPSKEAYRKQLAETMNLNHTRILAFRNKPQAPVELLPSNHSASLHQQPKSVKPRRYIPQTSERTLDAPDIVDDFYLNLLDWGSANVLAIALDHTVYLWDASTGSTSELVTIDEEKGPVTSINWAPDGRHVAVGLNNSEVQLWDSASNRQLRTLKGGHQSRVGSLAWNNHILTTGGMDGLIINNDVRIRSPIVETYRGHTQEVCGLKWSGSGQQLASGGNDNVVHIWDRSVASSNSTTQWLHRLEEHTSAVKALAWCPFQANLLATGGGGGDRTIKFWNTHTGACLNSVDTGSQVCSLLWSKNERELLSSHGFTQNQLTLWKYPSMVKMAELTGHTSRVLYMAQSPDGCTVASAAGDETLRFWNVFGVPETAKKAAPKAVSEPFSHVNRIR

[4] = target: T4, OSD1, yeast two-hybrid fusion (Arabidopsis thaliana) (UniProt Q9M2R1)
T4 sequence: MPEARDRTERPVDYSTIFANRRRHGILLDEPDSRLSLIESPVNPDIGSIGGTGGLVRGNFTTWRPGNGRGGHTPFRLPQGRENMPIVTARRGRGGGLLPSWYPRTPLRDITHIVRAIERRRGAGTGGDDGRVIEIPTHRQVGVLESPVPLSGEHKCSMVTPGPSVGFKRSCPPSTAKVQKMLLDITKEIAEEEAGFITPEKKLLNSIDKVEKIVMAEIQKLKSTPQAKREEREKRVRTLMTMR

[5] = target: T5, CCS52B, yeast two-hybrid fusion (UniProt Q8LPL5)
T5 sequence: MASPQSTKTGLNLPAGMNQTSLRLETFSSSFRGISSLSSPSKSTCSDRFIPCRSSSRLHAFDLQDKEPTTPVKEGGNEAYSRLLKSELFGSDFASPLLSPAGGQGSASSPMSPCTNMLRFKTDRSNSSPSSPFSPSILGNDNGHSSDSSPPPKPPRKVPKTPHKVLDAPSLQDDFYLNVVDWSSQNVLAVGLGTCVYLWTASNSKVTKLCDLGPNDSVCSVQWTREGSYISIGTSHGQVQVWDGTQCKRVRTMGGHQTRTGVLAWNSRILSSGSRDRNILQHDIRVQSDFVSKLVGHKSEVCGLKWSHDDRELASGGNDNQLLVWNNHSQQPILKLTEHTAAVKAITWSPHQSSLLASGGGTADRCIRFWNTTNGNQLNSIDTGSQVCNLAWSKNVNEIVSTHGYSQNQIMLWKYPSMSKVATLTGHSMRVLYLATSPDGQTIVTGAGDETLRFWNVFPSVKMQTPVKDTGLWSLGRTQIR

binding [1]: binds
binding [2]: no binding
binding [3]: binds
binding [4]: no binding
binding [5]: no binding
B1: TDM1 (THREE DIVISION MUTANT1), yeast two-hybrid fusion (protein, UniProt Q9SUC3 1-434)
chain: T1 sequence
